Data taken from patent US20060160798A1, “Viral polymerase inhibitors” (Boehringer Ingelheim (Canada) Ltd., priority 2001, published 2006).

System: Huh7 cells that stably maintain a subgenomic HCV replicon (S22.3 cell-line)
Test: Cell based HCV RNA replication assay (S22.3 replicon cells, real-time RT-PCR)
Settings: Hepatitis C virus
[1] = Huh-7, 72 h, S22.3 cells, 72 hours incubation, HCV RNA by RT-PCR

Row | Structure (SMILES) | EC50 (Huh-7, Table 6) | EC50 [1] | other results
1 | CC(=O)Nc1ccc(-c2c(C3CCCC3)c3ccc(C(=O)NC(C)(C)C(=O)Nc4ccc(/C=C/C(=O)O)cc4)cc3n2C)cc1C [Entry 6005] | < 500 nM | – | –
2 | O=C(O)/C=C/c1ccc(NC(=O)C2(NC(=O)c3ccc4c(C5CCCCC5)c(-c5ccoc5)[nH]c4c3)CCOCC2)cc1 [Entry 2069] | – | < 500 nM | –
3 | Cn1c(C(=O)O)cc2cc(NC(=O)C3(NC(=O)c4ccc5c(C6CCCC6)c(-c6ccccn6)n(C)c5c4)CCC3)ccc21 [Entry 7012] | – | – | EC50 (Huh-7, Table 7): < 500 nM
4 | Cn1c(-c2ccccn2)c(C2CCCC2)c2ccc(C(=O)NC3(C(=O)Nc4ccc(-c5ccc(C(=O)O)o5)cc4)CCCC3)cc21 [Entry 7010] | – | – | EC50 (Huh-7, Table 7): < 500 nM
5 | C/C(=C\c1ccc(NC(=O)C2(NC(=O)c3ccc4c(C5CCCC5)c(-c5ccsc5)n(C)c4c3)CCC2)cc1)C(=O)O [Entry 7053] | – | – | EC50 (Huh-7, Table 7): < 500 nM
6 | COc1ccc(-c2c(C3CCCC3)c3ccc(C(=O)NC4(C(=O)Nc5ccc(/C=C/C(=O)O)cc5)CCC4)cc3n2C)nc1 [Entry 6123] | < 500 nM | – | –
7 | C=CCn1c(C(=O)O)cc2cc(NC(=O)[C@@H](C)NC(=O)c3ccc4c(C5CCCCC5)c(-c5ccoc5)[nH]c4c3)ccc21 [Entry 2011] | – | 500 to 5000 nM | –
8 | Cn1c(-c2ccccn2)c(C2CCCCC2)c2ccc(C(=O)NC(C)(C)C(=O)Nc3ccc(-c4nc(C(=O)O)cs4)cc3)cc21 [Entry 2071] | – | < 500 nM | –
9 | CN1CCC(NC(=O)c2ccc3c(C4CCCC4)c(-c4cnccn4)n(C)c3c2)(C(=O)Nc2ccc(/C=C/C(=O)O)cc2)CC1 [Entry 6065] | 500 to 5000 nM | – | –
10 | COCCNc1nc(-c2c(C3CCCC3)c3ccc(C(=O)NC4(C(=O)Nc5ccc(/C=C/C(=O)O)cc5)CCCC4)cc3n2C)cs1 [Entry 6092] | < 500 nM | – | –
11 | CN(C)CCNc1nc(-c2c(C3CCCC3)c3ccc(C(=O)NC4(C(=O)Nc5ccc(/C=C/C(=O)O)cc5)CCC4)cc3n2C)cs1 [Entry 6082] | < 500 nM | – | –
12 | Cn1c(-c2ccoc2)c(C2CCCCC2)c2ccc(C(=O)NC(C)(C)C(=O)Nc3ccc(/C=C/C(=O)O)cc3)cc21 [Entry 2051] | – | < 500 nM | –
13 | CCN1CCC(NC(=O)c2ccc3c(C4CCCCC4)c(-c4ccoc4)[nH]c3c2)(C(=O)Nc2ccc(CCC(=O)O)cc2)CC1 [Entry 2079] | – | 500 to 5000 nM | –
14 | Cn1c(-c2cscn2)c(C2CCCC2)c2ccc(C(=O)NC3(C(=O)Nc4ccc(/C=C/C(=O)O)cc4)CCCC3)cc21 [Entry 6085] | < 500 nM | – | –
15 | CC(=O)N1CCCC(NC(=O)c2ccc3c(C4CCCC4)c(-c4ccccn4)n(C)c3c2)(C(=O)Nc2ccc(/C=C/C(=O)O)cc2)C1 (centres unmarked) [Entry 6002] | < 500 nM | – | –
16 | Cc1ccc(-c2c(C3CCCC3)c3ccc(C(=O)NC4(C(=O)Nc5ccc(-c6ccc(C(=O)O)o6)cc5)CCC4)cc3n2C)cn1 [Entry 7032] | – | – | EC50 (Huh-7, Table 7): < 500 nM
17 | Cn1c(-c2ccccn2)c(C2CCCC2)c2ccc(C(=O)NC3(C(=O)Nc4ccc(-c5nnn[nH]5)cc4)CCC3)cc21 [Entry 7079] | – | – | EC50 (Huh-7, Table 7): < 500 nM
18 | CC(=O)N1CCC(NC(=O)c2ccc3c(C4CCCC4)c(-c4ccccn4)n(C)c3c2)(C(=O)Nc2ccc(/C=C/C(=O)O)cc2)CC1 [Entry 6001] | < 500 nM | – | –
19 | O=C(N[C@@H](Cc1c[nH]c2ccc(O)cc12)c1cscn1)c1ccc2c(C3CCCCC3)c(-c3ccccc3)[nH]c2c1 [Entry 1001] | – | < 500 nM | –
20 | Cn1c(-c2ccccn2)c(C2CCCC2)c2ccc(C(=O)N[C@@]3(C(=O)Nc4ccc(/C=C/C(=O)O)cc4)CCN(S(C)(=O)=O)C3)cc21 [Entry 6124] | < 500 nM | – | –
21 | C=Cc1c(C2CCCC2)c2ccc(C(=O)NC3(C(=O)Nc4ccc(/C=C/C(=O)O)cc4)CCC3)cc2n1C [Entry 6084] | < 500 nM | – | –
22 | Cc1cc(NC(=O)C2(NC(=O)c3ccc4c(C5CCCC5)c(-c5ccccn5)n(C)c4c3)CCC2)ccc1/C=C/C(=O)O [Entry 7001] | – | – | EC50 (Huh-7, Table 7): < 500 nM

Row | Structure (SMILES) | EC50 (Huh-7, Table 6) | EC50 [1] | other results
23 | O=C(O)/C=C/c1ccc(NC(=O)C2(NC(=O)c3ccc4c(C5CCCCC5)c(Br)[nH]c4c3)CCCC2)cc1 [Entry 2003] | – | 500 to 5000 nM | –
24 | C[C@@H](NC(=O)c1ccc2c(C3CCCCC3)c(-c3ccoc3)[nH]c2c1)C(=O)Nc1ccc(/C=C/C(=O)O)cc1 [Entry 2004] | – | < 500 nM | –
25 | Cn1c(-c2ccccn2)c(C2CCCC2)c2ccc(C(=O)NC3(C(=O)Nc4ccc(-c5ccc(C(=O)O)o5)cc4)CCC3)cc21 [Entry 7009] | – | – | EC50 (Huh-7, Table 7): < 500 nM
26 | Cn1c(-c2ccc(N)cc2)c(C2CCCC2)c2ccc(C(=O)NC3(C(=O)Nc4ccc(/C=C/C(=O)O)cc4)CCCC3)cc21 [Entry 6053] | < 500 nM | – | –
27 | CNc1nc(-c2c(C3CCCC3)c3ccc(C(=O)NC(C)(C)C(=O)Nc4ccc(/C=C/C(=O)O)cc4)cc3n2C)cs1 [Entry 6009] | < 500 nM | – | –
28 | Cn1c(-c2ccccc2)c(C2CCCCC2)c2ccc(C(=O)NC3(C(=O)Nc4ccc(/C=C/C(=O)O)cc4)CCCC3)cc21 [Entry 2034] | – | < 500 nM | –
29 | Cn1c(-c2ccccn2)c(C2CCCC2)c2ccc(C(=O)NC3(C(=O)Nc4ccc5oc(C(=O)O)cc5c4)CCC3)cc21 [Entry 7006] | – | – | EC50 (Huh-7, Table 7): < 500 nM
30 | Cn1c(-c2ccccn2)c(C2CCCC2)c2ccc(C(=O)NC(C)(C)/C=C/c3ccc(/C=C/C(=O)O)cc3)cc21 [Entry 1016] | – | < 500 nM | –
31 | Cn1c(-c2ccsc2)c(C2CCCC2)c2ccc(C(=O)NC3(C(=O)Nc4ccc(-c5ccc(C(=O)O)o5)cc4)CCC3)cc21 [Entry 7019] | – | – | EC50 (Huh-7, Table 7): < 500 nM
32 | Cn1c(-c2csc(N)n2)c(C2CCCC2)c2ccc(C(=O)NC3(C(=O)Nc4ccc(/C=C/C(=O)O)cc4)CCCC3)cc21 [Entry 6089] | < 500 nM | – | –
33 | Cn1c(-c2csc(-c3ccncc3)n2)c(C2CCCC2)c2ccc(C(=O)NC(C)(C)C(=O)Nc3ccc(/C=C/C(=O)O)cc3)cc21 [Entry 6011] | < 500 nM | – | –
34 | CC(C)(NC(=O)c1ccc2c(C3CCCCC3)c(-c3ccccc3)[nH]c2c1)C(=O)Nc1ccc(/C=C/C(=O)O)cc1 [Entry 2058] | – | < 500 nM | –
35 | CC(C)(NC(=O)c1ccc2c(C3CCCCC3)c(-c3ccccn3)[nH]c2c1)C(=O)Nc1ccc(/C=C/C(=O)O)cc1 [Entry 2089] | – | < 500 nM | –
36 | CCN1CCC(NC(=O)c2ccc3c(C4CCCCC4)c(-c4ccccn4)n(C)c3c2)(C(=O)Nc2ccc(-c3ccc(C(=O)O)nc3)cc2)CC1 [Entry 2101] | – | < 500 nM | –
37 | CNc1nc(-c2c(C3CCCC3)c3ccc(C(=O)NC4(C(=O)Nc5ccc(/C=C/C(=O)O)cc5)CCC4)cc3n2C)cs1 [Entry 6072] | < 500 nM | – | –
38 | CC(=O)Nc1nc(-c2c(C3CCCC3)c3ccc(C(=O)NC4(C(=O)Nc5ccc(/C=C/C(=O)O)cc5)CCCC4)cc3n2C)cs1 [Entry 6086] | < 500 nM | – | –
39 | CNC(=O)C(=O)Nc1ccc(NC(=O)C(C)(C)NC(=O)c2ccc3c(C4CCCCC4)c(-c4ccccn4)n(C)c3c2)cc1 [Entry 2076] | – | < 500 nM | –
40 | Cn1c(-c2ccccn2)c(C2CCCC2)c2ccc(C(=O)NC3(C(=O)Nc4ccc(-c5cncnc5)cc4)CCC3)cc21 [Entry 7055] | – | – | EC50 (Huh-7, Table 7): 500 to 5000 nM
41 | CN1CCC(NC(=O)c2ccc3c(C4CCCC4)c(-c4ccsc4)n(C)c3c2)(C(=O)Nc2ccc(/C=C/C(=O)O)cc2)CC1 [Entry 6056] | < 500 nM | – | –
42 | Cc1cccc(-c2c(C3CCCC3)c3ccc(C(=O)NC4(C(=O)Nc5ccc(/C=C/C(=O)O)cc5)CCC4)cc3n2C)n1 [Entry 6069] | < 500 nM | – | –
43 | CC(=O)Nc1ccc(-c2c(C3CCCC3)c3ccc(C(=O)NC4(C(=O)Nc5ccc(/C=C/C(=O)O)cc5)CCC4)cc3n2C)cc1C [Entry 6006] | < 500 nM | – | –
44 | Cn1c(-c2ccc(C(F)(F)F)cn2)c(C2CCCC2)c2ccc(C(=O)NC3(C(=O)Nc4ccc(/C=C/C(=O)O)cc4)CCC3)cc21 [Entry 6041] | < 500 nM | – | –
